# The BET-seq Pho4 binding data (Le et al. 2018)
# The list shows a part of the results. These are noisy estimates, calculated here from bound and input reads.
# Molecular target: T1, Pho4 (S. cerevisiae) (UniProt P07270)
# T1 sequence: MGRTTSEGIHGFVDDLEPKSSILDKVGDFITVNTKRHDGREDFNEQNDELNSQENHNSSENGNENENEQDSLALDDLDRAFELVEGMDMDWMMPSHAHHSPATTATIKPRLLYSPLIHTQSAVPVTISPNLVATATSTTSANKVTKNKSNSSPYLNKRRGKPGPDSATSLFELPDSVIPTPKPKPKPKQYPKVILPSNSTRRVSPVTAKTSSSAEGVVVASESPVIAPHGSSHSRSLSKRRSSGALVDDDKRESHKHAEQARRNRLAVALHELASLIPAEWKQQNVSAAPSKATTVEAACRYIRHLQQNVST
# Test: relative binding free energy (BET-seq); higher = weaker binding
# Details: reference: library average
row,Sequence,relative binding free energy [kcal/mol]
1,AGGATCACGTGTTGTG,0.17
2,TTGCACACGTGATGTG,0.03
3,TGTCACACGTGAGGGT,0.31
4,ATGTTCACGTGATTTC,0.32
5,ACGATCACGTGTAGGT,0.09
6,GTGATCACGTGTTCTA,0.15
7,TATGTCACGTGCAGAT,0.11
8,GTAGTCACGTGACGGG,0.1
9,GGTGGCACGTGTATGG,-0.02
10,GTAATCACGTGTCTGT,0.1
11,GGTAGCACGTGGCTTA,-0.22
12,TGAGTCACGTGATGAG,0.31
13,CTTTCCACGTGTGGTG,0.1
14,GCTTACACGTGGAGGT,0.11
15,CATGGCACGTGTAATG,0.08
16,CATTGCACGTGAGAGT,0.21
17,GTGTGCACGTGTGCGC,-0.02
18,TATGCCACGTGGCTGT,-0.29
19,AGTGTCACGTGATTGT,0.21
20,TAAAGCACGTGTAATT,-0.03
21,TGGTGCACGTGTAAGA,0.08
22,AGTGGCACGTGCATTG,-0.19
23,AAGTACACGTGGGTAG,-0.09
24,AGTTTCACGTGGGGCT,0.18
25,GTTTGCACGTGTCAAT,0.06

row,Sequence,relative binding free energy [kcal/mol]
1,TGCTGCACGTGTTAAA,0.14
2,TTGTTCACGTGACAAT,0.3
3,TGTGTCACGTGAACTG,0.24
4,ATTAGCACGTGTGTGC,-0.03
5,TTTTGCACGTGCTGCA,-0.08
6,GAATGCACGTGGGCGT,-0.14
7,AGCAGCACGTGGTCGG,-0.12
8,TGGATCACGTGAGTGT,0.35
9,GATAACACGTGGGTAT,-0.04
10,GTTGCCACGTGTGCGT,-0.04
11,GTAATCACGTGAGTGT,0.3
12,TCGGGCACGTGTGTCA,-0.14
13,TCGTTCACGTGGGGCC,0.15
14,TAGGTCACGTGGTTCC,0.14
15,TTATACACGTGACTTG,0.23
16,TTTACCACGTGTGTAA,0.01
17,AGTTACACGTGAATGA,0.43
18,GAACTCACGTGTTGGG,0.27
19,TGCGTCACGTGGCGTA,-0.03
20,AGGAGCACGTGGGATA,-0.11
21,AGTAGCACGTGCTGGG,-0.13
22,AAAGGCACGTGTCGGT,-0.07
23,TCTGTCACGTGGGTAA,0.04
24,GGCAACACGTGAGGGT,0.25
25,GAGGGCACGTGTCAAG,0.06

row,Sequence,relative binding free energy [kcal/mol]
1,AGTCTCACGTGAGGTG,0.29
2,TGAATCACGTGGGTTC,-0.01
3,GTTACCACGTGTGCGG,0.04
4,GGTCGCACGTGAGGCA,0.29
5,ATTAACACGTGCGTTT,-0.06
6,AGGATCACGTGTTTGA,0.12
7,TAAGTCACGTGGAAGA,0.18
8,GGTGTCACGTGAGCAT,0.24
9,GCTTGCACGTGGGTGA,-0.06
10,GCAGGCACGTGATGGA,0
11,AGTATCACGTGAGAGT,0.29
12,GGTGGCACGTGGTTGT,-0.06
13,TGTGCCACGTGCTGGT,-0.27
14,TGTGGCACGTGCTCGT,-0.25
15,AGTTTCACGTGATTGT,0.38
16,AGTTACACGTGATAGA,0.29
17,GTTGGCACGTGTGTCG,0.01
18,TAGAACACGTGTGCTT,0.18
19,GGTGTCACGTGTATAA,0.24
20,ATGTCCACGTGAGTTG,0.15
21,TAATACACGTGCGGGG,0.04
22,ACATACACGTGTTAGT,0.12
23,AAGGACACGTGTTGAG,0.02
24,AGGTCCACGTGGAGAT,0.13
25,TGGCGCACGTGTAGGT,0.09

row,Sequence,relative binding free energy [kcal/mol]
1,GACAGCACGTGGTAGT,-0.06
2,CGTTACACGTGTTAGG,0.15
3,AAATGCACGTGATGGT,0.19
4,CGGTGCACGTGATCGT,0.02
5,GGTCTCACGTGGGGCT,0.15
6,GTCCACACGTGGGTGT,-0.02
7,AGGGTCACGTGAACGT,0.19
8,AGGTGCACGTGGGGTC,-0.22
9,TAGGGCACGTGATTGG,0.08
10,GGAAGCACGTGTTAAT,0.11
11,GTCAGCACGTGTAGTG,-0.14
12,GTGGTCACGTGCAAGG,0.14
13,GGATTCACGTGAGATA,0.47
14,GTGTTCACGTGGGTCC,0.28
15,TATGTCACGTGACGCG,0.12
16,TGTATCACGTGTGGTT,0.17
17,GGTGTCACGTGAGATA,0.31
18,TATTACACGTGGGCGG,0.08
19,GGAGCCACGTGGCGGG,-0.33
20,TAAATCACGTGATGGC,0.31
21,GAGGACACGTGCGGGT,0.03
22,GATGCCACGTGAAGGG,0.19
23,TGTTGCACGTGACCGT,-0.03
24,AACATCACGTGGGAGG,0.21
25,TGGAGCACGTGCGTTA,-0.15

row,Sequence,relative binding free energy [kcal/mol]
1,CGTATCACGTGTATAG,0.11
2,GTGGTCACGTGAAGCG,0.36
3,AGGATCACGTGCAGGT,0.16
4,GTGGCCACGTGATGAG,0.08
5,AGTCTCACGTGAAGTG,0.26
6,ATTGCCACGTGTTGGG,-0.16
7,GGGGCCACGTGTAGAA,0.22
8,TCAGACACGTGAAGGG,0.25
9,TTAAGCACGTGTATCG,-0.04
10,ATGGCCACGTGAGGGG,0.08
11,TGGATCACGTGTGAGT,0.19
12,TATATCACGTGGCAGG,0.01
13,CCGGTCACGTGTTTTT,0.18
14,TTCGACACGTGGGTTT,0.01
15,GCATGCACGTGAGAGG,0.28
16,TAGTTCACGTGCGTTT,0.31
17,TGGACCACGTGGCTGG,-0.14
18,TGTAGCACGTGTCTTT,0.03
19,TGGTCCACGTGGGCAT,-0.12
20,GGTTTCACGTGCTATG,0.29
21,CCGGGCACGTGTGGGG,-0.02
22,TAAGGCACGTGGTCTG,-0.31
23,CTGGGCACGTGGCGGA,-0.14
24,TGGAGCACGTGAGGTC,0.22
25,ATCTGCACGTGTAATT,0.18

row,Sequence,relative binding free energy [kcal/mol]
1,TTGATCACGTGTTGGA,0.12
2,CGGTTCACGTGTGAGT,0.3
3,GGAGGCACGTGTGGAG,0.01
4,ATACGCACGTGGGTGA,-0.35
5,AAGGTCACGTGATAAT,0.23
6,TAGTACACGTGAGAAG,0.46
7,GGAGTCACGTGATAAG,0.34
8,TTATCCACGTGGATTT,0.1
9,GGGGCCACGTGCTAGG,-0.2
10,AGCGGCACGTGGAAGG,0.08
11,GTGACCACGTGGATGT,0.1
12,CTTCTCACGTGGATGT,0.22
13,ATGGACACGTGGTTTA,-0.07
14,GCTGGCACGTGGCGTG,-0.15
15,TTGTGCACGTGTGGGC,-0.04
16,ATTTGCACGTGGGATT,-0.07
17,TAGATCACGTGGAAGG,0.26
18,GTATTCACGTGGCGCG,0.33
19,AGGCGCACGTGAGAGG,0.18
20,CGGTGCACGTGAAGTG,0.37
21,ATTCTCACGTGGAGAT,0.26
